# According to PubChem BioAssay AID1645886 (National Center for Advancing Translational Sciences (NCATS), 2021):
# Values joined by “and” are separate entries in the source; they are usually repeats but may differ in a detail not shown here. Equal values may be shown once. Hit rate of the full screen: of about 16,000 compounds, about 260 (1.6%) were called active. Inconclusive results, whose numbers are uncertain, are shown with a selection of clear calls. Calls follow the shape of the dose curve; as a rule, active = well fitted inhibition curve with a large enough effect; inconclusive = small, poorly fitted or top-dose-only effect; inactive = no such curve, though single readings can be large or run the other way. Where the call is inconclusive, the potency comes from a doubtful curve fit.
# Target: Rap guanine nucleotide exchange factor 4 (Homo sapiens) (UniProt Q8WZA2)
# Chain of UniProt Q8WZA2 (Q8WZA2 whole entry, looked up): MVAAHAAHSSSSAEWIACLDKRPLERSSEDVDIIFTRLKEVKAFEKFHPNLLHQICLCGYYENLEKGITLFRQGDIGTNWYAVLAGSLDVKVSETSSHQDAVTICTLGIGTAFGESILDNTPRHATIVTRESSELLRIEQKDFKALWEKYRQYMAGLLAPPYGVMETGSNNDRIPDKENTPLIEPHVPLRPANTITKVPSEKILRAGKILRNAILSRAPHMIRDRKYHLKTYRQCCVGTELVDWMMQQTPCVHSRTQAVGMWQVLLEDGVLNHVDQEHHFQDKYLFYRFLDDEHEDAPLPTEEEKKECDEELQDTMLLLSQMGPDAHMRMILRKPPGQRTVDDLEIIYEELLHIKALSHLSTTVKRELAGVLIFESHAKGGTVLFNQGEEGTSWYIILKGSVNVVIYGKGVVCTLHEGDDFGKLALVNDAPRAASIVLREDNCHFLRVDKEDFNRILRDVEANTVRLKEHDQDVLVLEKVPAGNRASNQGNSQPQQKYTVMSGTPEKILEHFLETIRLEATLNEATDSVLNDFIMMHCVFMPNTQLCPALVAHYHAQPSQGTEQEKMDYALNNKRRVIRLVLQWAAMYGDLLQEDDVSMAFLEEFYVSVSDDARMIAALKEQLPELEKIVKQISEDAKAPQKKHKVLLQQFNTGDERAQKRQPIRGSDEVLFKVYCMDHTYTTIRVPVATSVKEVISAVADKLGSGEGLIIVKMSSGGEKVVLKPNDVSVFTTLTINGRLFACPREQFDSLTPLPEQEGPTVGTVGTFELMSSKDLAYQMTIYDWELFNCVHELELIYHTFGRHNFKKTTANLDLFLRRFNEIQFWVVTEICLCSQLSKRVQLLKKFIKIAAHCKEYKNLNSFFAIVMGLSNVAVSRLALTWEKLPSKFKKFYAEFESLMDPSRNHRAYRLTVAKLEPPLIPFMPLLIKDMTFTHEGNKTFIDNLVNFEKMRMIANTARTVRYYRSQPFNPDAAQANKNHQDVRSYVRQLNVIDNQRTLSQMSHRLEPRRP
# Assay: Validation qHTS for antagonist of cAMP-regulated guanine nucleotide exchange factor 4 (EPAC2); also: nearly all actives have a fitted effect of over 40% in size
# Settings: EPAC2 Rap1B BODIPY-GDP exchange, fluorescence; activity, negative = inhibition: at 112 µM (top of the series)
# Outline: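 Normalized against a 6.5 mM cAMP agonist control, compounds were tested on 100 nM EPAC2 exchanging Rap1B-bound BODIPY-GDP (250 nM) for 50 uM GDP. Fluorescence drop (ex 480, em 540 nm) was tracked at room temperature over 30 min at 5-min intervals.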
# Potency is read from the fitted curve at half-maximal effect; tags tell the direction and shape of the fitted curve.
SMILES,Potency,"activity, negative = inhibition"
O=C(c1csnn1)N1CCC2(CCCN(Cc3cc(C(F)(F)F)cc(C(F)(F)F)c3)C2)CC1,"inconclusive: 28.2 µM [inhibitor, full curve]",–
COc1ccccc1CNc1ncncc1-c1cccc(C#N)c1,"inconclusive: 89.1 µM [inhibitor, partial curve]",–
COC(=O)[C@@H]1C[C@@H](NC(=O)c2cccc3c(C)c(C)[nH]c23)CN1Cc1cccc2ccccc12,–,inactive: -0.609%
CC(C)Oc1ccc(C(=O)NCC2Cc3cc(F)cc(-c4cnccn4)c3O2)cc1 (stereo not given),"inconclusive: 89.1 µM [inhibitor, single point]",–
Cn1cnc2c(F)c(Nc3ccc(Br)cc3Cl)c(C(=O)NOCCO)cc21,"inconclusive: 1.78 µM [inhibitor, full curve, poor fit]",–
NC(=Nc1ccccc1)Nc1ccccc1,"inconclusive: 0.0251 µM [inhibitor, full curve, poor fit]",–
Cc1nc2ccccc2nc1CN1CCOc2ccc(C(C)(O)COc3ccccc3)cc2C1 (stereo not given),–,inactive: -26.2%
O=C1NC(c2cccc([N+](=O)[O-])c2)=CCN1c1ccccc1O,"inconclusive: 89.1 µM [inhibitor, single point]",–
Nc1ncnc2c1ncn2C1CCCC1,"inconclusive: 89.1 µM [inhibitor, single point]",–
O=C(Nc1cccc(C2=NCCN2)c1)Nc1cccc(C2=NCCN2)c1,–,inactive: -44.2%
CC[C@H](c1ccc(O)cc1)[C@@H](CC)c1ccc(O)cc1,"inconclusive: 15.8 µM [inhibitor, partial curve, poor fit]",–
Cc1ccn(CCC(=O)N2CCOc3ccc(C(O)C4CCCCC4)cc3C2)n1 (stereo not given),"inconclusive: 7.94 µM [inhibitor, full curve, poor fit]",–
CCCCC(=O)OCC(=O)[C@H]1[C@H](C)C[C@H]2[C@@H]3C[C@H](F)C4=CC(=O)C=C[C@]4(C)[C@@]3(F)[C@@H](O)C[C@@]21C,–,inactive: -23.5%
COc1cccc(-c2cncnc2NCc2ccccc2OC)c1,"inconclusive: 50.1 µM [inhibitor, partial curve]",–
CCCCCc1c2c(cc(O)c1C(=O)O)OC(=O)c1cc(C(=O)CCCC)c(OC)cc1O2,"inconclusive: 14.1 µM [inhibitor, partial curve, poor fit]",–
O=c1c(O)cc(C2Oc3cc(O)cc(O)c3CC2O)cc2c(C3Oc4cc(O)cc(O)c4CC3O)cc(O)c(O)c12 (stereo not given),active: 20 µM,–
CC(Oc1ccccc1)C(=O)N[C@@H]1C(=O)N2C(C(=O)OCC3CCCCC3)C(C)(C)S[C@H]12 (stereo not given in full),"inconclusive: 56.2 µM [inhibitor, partial curve, poor fit]",–
COc1cccc2c1C(=O)c1c(O)c3c(c(O)c1C2=O)C[C@@](O)(C(=O)CO)C[C@@H]3O[C@H]1C[C@H](N)[C@H](O[C@@H]2CCCCO2)[C@H](C)O1,–,inactive: 136%
CCc1cc(C(=O)NCC2Cc3cc(C)cc(-c4cc(C(C)=O)ccc4F)c3O2)n(C)n1 (stereo not given),"inconclusive: 14.1 µM [inhibitor, full curve, poor fit]",–
Cc1ccnc2ccc([N+](=O)[O-])cc12,"inconclusive: 20 µM [inhibitor, partial curve]",–

SMILES,Potency,"activity, negative = inhibition"
COc1ccc(-c2nc3cnc(N4CCN(C)CC4)nc3n(C)c2=O)cc1,–,inactive: -15.1%
CCNc1ncc2nc(CCc3ccccc3)c(=O)n(-c3ccc(OC)cc3)c2n1,–,inconclusive: -31.1% [inhibitor]
Cc1cc(C(=O)Nc2cccc(-c3nc(CNC(=O)c4sc(C)nc4C)c(C)o3)c2)c(C)o1,–,inactive: -3.07%
COc1cc(SC)ccc1C(=O)N1CCC(Cc2ccccc2)CC1,"inconclusive: 100 µM [inhibitor, single point]",–
O=C(O)C1=CC(=C(c2ccc(O)c(C(=O)O)c2)c2ccc(O)c(C(=O)O)c2)C=CC1=O,"inconclusive: 2.51 µM [inhibitor, full curve, poor fit]",–
CCCn1c(=O)c(C)cn2nc(N)nc12,"inconclusive: 89.1 µM [inhibitor, single point]",–
CCCCCCCCN1[C@@H](CC(=O)OC)c2cc(F)ccc2S1(=O)=O,"inconclusive: 17.8 µM [inhibitor, full curve]",–
O=c1cc(-c2ccccc2)oc2ccccc12,"inconclusive: 141 µM [inhibitor, partial curve, poor fit]",–
COCc1c(C(=O)N2CCCCC2c2cccnc2)cnn1-c1ncc2c(n1)-c1ccccc1CCC2 (stereo not given),–,inactive: 3.02%
CC(C(O)c1ccc(O)cc1)N1CCC(Cc2ccccc2)CC1 (stereo not given),"inconclusive: 79.4 µM [inhibitor, single point]",–
CCCCCCCCCCCCCCCC(=O)N[C@@H](COP(=O)(O)O)C(=O)O,"inconclusive: 8.91 µM [inhibitor, partial curve, poor fit]",–
Cn1cc(C(F)(F)F)nc1-c1ccc(OCC(O)CNCCOc2ccc(O)c(C(N)=O)c2)cc1 (stereo not given),"inconclusive: 20 µM [inhibitor, single point]",–
COCCn1c(=O)c(-c2ccc(Cl)cc2)nc2cnc(OC)nc21,"inconclusive: 79.4 µM [inhibitor, single point]",–
CN1CCN2c3ncccc3Cc3ccccc3C2C1 (stereo not given),"inconclusive: 63.1 µM [inhibitor, partial curve, poor fit] and inconclusive: 7.08 µM [inhibitor, full curve]",–
CC(C)C(=O)NCC1CCC2(CCN(Cc3ccc(-c4ccccc4Cl)o3)CC2)O1 (stereo not given),–,inactive: -8.7%
Cc1ccccc1Cc1nc2cccnc2n1C1CCN(C(=O)CC2NC(=O)c3ccccc32)CC1 (stereo not given),–,inactive: -8.37%
COC(=O)N1CCC2(CCN(Cc3ccc(C#N)cc3)CC2)CC1,"inconclusive: 39.8 µM [inhibitor, partial curve, poor fit]",–
C#CCN(Cc1ccccc1)S(=O)(=O)C=C,"inconclusive: 17.8 µM [inhibitor, full curve]",–
CCOC(=O)/C=C(C)/C=C/C=C(C)/C=C/c1c(C)cc(OC)c(C)c1C,"inconclusive: 14.1 µM [inhibitor, partial curve, poor fit]",–
COc1ccc2c3c1O[C@H]1C[C@H](O)C=C[C@@]31CCN(C)C2,"inconclusive: 89.1 µM [inhibitor, partial curve, poor fit]",–
